The text below walks through data of paper PMC4336329 (PLoS ONE, 2015).

The structures appear in SMILES notation. About 14,000 (4.5%) of roughly 310,000 compounds showed an effect of 50% or more. The effect is printed as a negative number. This is one part of the list.
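Note: peak tail current of the secondary pulse compared with the same well before compound.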

This test deals with human ether-à-go-go-related gene (hERG) potassium channel (human, UniProt Q12809). In words: primary screen, population patch clamp on CHO cells stably expressing hERG.
Sequence of human ether-à-go-go-related gene (hERG) potassium channel (Q12809 whole entry, looked up): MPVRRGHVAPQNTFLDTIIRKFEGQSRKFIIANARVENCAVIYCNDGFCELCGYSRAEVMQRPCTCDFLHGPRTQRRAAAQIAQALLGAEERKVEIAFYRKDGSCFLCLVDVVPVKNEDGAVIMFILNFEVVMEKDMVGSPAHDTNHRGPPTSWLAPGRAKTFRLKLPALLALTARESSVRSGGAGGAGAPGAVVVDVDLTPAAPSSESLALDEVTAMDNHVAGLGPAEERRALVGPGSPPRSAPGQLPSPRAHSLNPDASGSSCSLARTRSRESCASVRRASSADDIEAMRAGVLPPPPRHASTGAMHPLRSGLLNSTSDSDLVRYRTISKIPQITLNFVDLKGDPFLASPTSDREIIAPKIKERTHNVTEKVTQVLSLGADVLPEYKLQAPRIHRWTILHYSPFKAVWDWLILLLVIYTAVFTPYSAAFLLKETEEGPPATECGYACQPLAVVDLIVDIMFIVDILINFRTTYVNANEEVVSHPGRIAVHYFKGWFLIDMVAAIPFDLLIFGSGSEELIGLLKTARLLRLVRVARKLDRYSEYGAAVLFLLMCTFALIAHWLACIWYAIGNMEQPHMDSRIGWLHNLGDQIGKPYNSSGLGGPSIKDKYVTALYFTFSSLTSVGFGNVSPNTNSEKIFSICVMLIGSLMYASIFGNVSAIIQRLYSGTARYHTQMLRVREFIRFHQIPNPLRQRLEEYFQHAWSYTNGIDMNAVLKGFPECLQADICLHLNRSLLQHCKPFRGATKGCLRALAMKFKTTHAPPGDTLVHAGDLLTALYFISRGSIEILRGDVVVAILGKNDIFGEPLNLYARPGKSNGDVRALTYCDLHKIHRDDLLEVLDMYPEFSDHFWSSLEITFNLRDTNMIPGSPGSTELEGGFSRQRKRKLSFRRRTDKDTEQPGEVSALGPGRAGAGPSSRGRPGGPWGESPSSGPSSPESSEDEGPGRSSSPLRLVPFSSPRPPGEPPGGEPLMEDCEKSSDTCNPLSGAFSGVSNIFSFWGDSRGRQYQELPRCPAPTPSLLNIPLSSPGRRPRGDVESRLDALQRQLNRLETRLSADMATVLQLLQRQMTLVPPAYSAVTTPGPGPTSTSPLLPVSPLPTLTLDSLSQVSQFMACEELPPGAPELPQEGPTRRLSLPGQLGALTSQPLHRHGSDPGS
For the molecule `CN(C)CC(=O)Nc1nc(-c2ccccc2)cs1`, the “hERG current change (%, negative = inhibition) at 10uM” value was -5.76%.

In the case of `CC#CCC(CC#CC)c1nc2ccccc2c(=O)n1N`, the “hERG current change (%, negative = inhibition) at 10uM” value is given as -1.36%. In the case of `CSc1nccn1C(=O)c1ccccc1[N+](=O)[O-]` it was 18.2%; in that of `N/C(=N\OS(=O)(=O)c1ccc(Br)cc1)c1ccncc1`, -18.1%; in that of `CCOc1cc(-c2nc3n(c(=O)c2C#N)CCS3)ccc1O`, 20.6%. Under `CCOC(=O)N1CCN(C(=O)CNS(=O)(=O)c2c(C)cc(C)cc2C)CC1` stands 8.18%; under `Cc1noc(C)c1S(=O)(=O)N(CC(=O)NCc1ccccc1)c1ccc(C(C)C)cc1`, 10.4%. In the case of `Cc1cccc(OCC(=O)NNC(=O)CSc2ncc(C#N)c(N)n2)c1` it was 2.11%.

Regarding `O=C(C1=C[C@@H](C2CC2)C[C@@H](OCCCCO)O1)N1CCN(Cc2ccccc2)CC1`, the “hERG current change (%, negative = inhibition) at 10uM” value is reported as 0.7%. In the case of `CCC(=O)N1CCN=C1SCc1ccccc1` it was 11.8%; in that of `COc1ccc2c(c1)C(C)=CC(C)(C)N2S(=O)(=O)c1ccc(Br)cc1`, 4.42%.

As for `Br.CCOc1ccc(N=c2scc(-c3ccccc3)n2CCO)cc1`, the “hERG current change (%, negative = inhibition) at 10uM” value turned out to be 10.8%. In the case of `CC(NS(C)(=O)=O)C(c1cccs1)N1CCN(c2ccccc2F)CC1` (centres unmarked) it was 6.04%. For the molecule `CCOC(=O)CSc1nc2sc3c(c2c(=O)n1-c1ccccc1)CCN(C)C3`, the “hERG current change (%, negative = inhibition) at 10uM” value was found to be 12.6%. As to `COc1cccc(/C=N/Nc2ncnc(N)c2[N+](=O)[O-])c1OC`, the “hERG current change (%, negative = inhibition) at 10uM” value stood at 3.62%. Under `O=C(CCc1nnc(CCCCc2ccccc2)o1)NCCCc1cccnc1` stands -14.8%; under `COc1cc(SC)ccc1C(=O)Nc1ncc(C)s1`, 19.6%; under `O=S(=O)(c1ccc(F)cc1)c1nc(-c2ccccc2)oc1N1CCOCC1`, -24.5%.

For the molecule `Cc1ccccc1C(=O)NC(=S)NCCc1ccccc1`, the “hERG current change (%, negative = inhibition) at 10uM” value is -7.87%. Turning to `CC(C)(C)c1ccc(C(=O)Nc2ccc(CC(=O)O)cc2)o1`, the “hERG current change (%, negative = inhibition) at 10uM” value is given as -6.81%.

Turning to `CCc1noc(C)c1C(=O)OC(C)C(=O)Nc1ccc(Cl)cn1` (centres unmarked), the “hERG current change (%, negative = inhibition) at 10uM” value is -17.8%.

Turning to `COc1ccc(CN2C(=O)[C@H]3Cc4c([nH]c5ccccc45)C(C)(C)N3C2=O)cc1`, the “hERG current change (%, negative = inhibition) at 10uM” value worked out at 7%. Under `CC(=O)c1ccc(-n2cc(-c3ccc(C(C)(C)C)cc3)[n+]3c2SCCC3)cc1.[Br-]` stands -30.1%; under `CSc1cccc(CNC(=O)C2CCC(=O)N(CCc3ccccn3)C2)c1` (centres unmarked), 4.83%. In the case of `COc1ccccc1NS(=O)(=O)c1cc(NC(=O)c2ccncc2)ccc1N1CCOCC1` it was -5.62%; in that of `O=c1c2ccccc2nc(-c2ccccc2)n1-c1ccccn1`, 18.5%. For `O=c1oc2cc(O)ccc2c2ccccc12`, the “hERG current change (%, negative = inhibition) at 10uM” value is on record as 2.06%. On to `Cc1onc(-c2ccccc2)c1C(=O)NCc1ccco1`, for which the “hERG current change (%, negative = inhibition) at 10uM” value was determined as 7.93%. Take `CNC(=O)/C(C#N)=C/c1c(N2CCN(c3ccccc3)CC2)nc2c(C)cccn2c1=O`: the “hERG current change (%, negative = inhibition) at 10uM” value was -31.6%. Under `CC(=O)OCC(=O)[C@@]1(O)CC[C@H]2[C@@H]3CCC4=CC(=O)CC[C@]4(C)[C@H]3C(=O)C[C@@]21C` stands -14.6%.

For `O=C(NCc1ccncc1)C(=O)N/N=C/c1cccnc1`, the “hERG current change (%, negative = inhibition) at 10uM” value is 20%. In the case of `O=C1c2oc3ccc(Cl)cc3c(=O)c2C(c2ccco2)N1CCN1CCOCC1` (centres unmarked) it was 2.36%; in that of `CCOC(=O)c1c(NC(=O)Cc2ccccc2)sc2c1CCN(CC)C2.Cl`, -65.3%.

In the case of `CCCCN(C)CCNC(=O)Cn1c(=O)sc2ccccc21`, the “hERG current change (%, negative = inhibition) at 10uM” value is given as -8.43%. Regarding `Cl.NC(N)=NC(N)=Nc1ccc(SC(F)(F)F)cc1`, the “hERG current change (%, negative = inhibition) at 10uM” value was -21.3%. Turning to `O=C(O)CCc1ncc(C(F)(F)F)cc1Cl`, the “hERG current change (%, negative = inhibition) at 10uM” value is on record as 17.1%.

Take `COC(=O)c1cc(-c2ccccc2)n[nH]1`: the “hERG current change (%, negative = inhibition) at 10uM” value was found to be 4.06%. For the molecule `CC(C)c1nc(SCC(=O)c2ccc(F)cc2)c2ccccc2n1`, the “hERG current change (%, negative = inhibition) at 10uM” value came out at 19.2%. `Br.CCCc1cc(-c2nc(-c3ccc(Cl)cc3)cs2)ccn1`: the “hERG current change (%, negative = inhibition) at 10uM” value is reported as -0.513%.

In the case of `O=C(Cn1ccc([N+](=O)[O-])n1)Nc1nc2ccccc2s1`, the “hERG current change (%, negative = inhibition) at 10uM” value is listed as -45.8%. Regarding `O=C(NCc1ccccc1Cl)C1CCC(=O)N1Cc1ccc(F)cc1` (centres unmarked), the “hERG current change (%, negative = inhibition) at 10uM” value was 9.39%. For the molecule `O=C(c1ccc([N+](=O)[O-])cc1)N1CCN(c2ncc(Br)cn2)CC1`, the “hERG current change (%, negative = inhibition) at 10uM” value is recorded as -32%. Under `Cc1ccccc1NC(=O)CCCNC(=O)c1ccc(Cl)cc1` stands 16.9%; under `COc1ccccc1OCC(=O)Nc1ccc(N2CCCCC2)cc1`, -29%; under `Cc1cccc(N/C(N)=N/c2nc(C)cc(=O)[nH]2)c1`, 19.3%. Under `COc1ccc(-c2cnc(N)nc2-c2ccc(OCc3ccccc3)cc2O)cc1` stands 9.83%; under `Cc1ccc(C(=O)NCc2ccco2)cc1[N+](=O)[O-]`, -9.12%. Regarding `CCNC(=S)N/N=C(\C)c1ccc2ccccc2c1OC(F)F`, the “hERG current change (%, negative = inhibition) at 10uM” value is recorded as -13.2%. In the case of `O=C1C(C2=NC(C(=O)O)C3C(=O)N(c4ccc(Cl)cc4)C(=O)C23)=C(O)c2ccccc21` (centres unmarked) it was 2.54%. In the case of `CCOC(=O)CC(=O)CSc1nc2nc(C)cc(C)n2n1` it was 8.34%; in that of `Cc1ccc(N2CC(C(=O)OCC(=O)C(C)(C)C)CC2=O)cc1C` (centres unmarked), -1.57%. In the case of `Cc1ccc(-n2ncc3c2CC(C)(C)CC3NC(=O)CN2CCCC2=O)cc1` (centres unmarked) it was -8.66%. In the case of `Cc1ccc(-c2nn(C)c(=O)c3ccccc23)cc1CNC(=O)c1ccco1`, the “hERG current change (%, negative = inhibition) at 10uM” value is -36.7%. In the case of `CSCCC(NS(=O)(=O)c1cccc(C(F)(F)F)c1)C(=O)N(C)CCOc1ccc(Cl)cc1` (centres unmarked), the “hERG current change (%, negative = inhibition) at 10uM” value amounted to 9.27%.

On to `C[C@H]1CC[C@]2(O[C@@H](CCO)C[C@@H](O)[C@@H]2O)O1`, for which the “hERG current change (%, negative = inhibition) at 10uM” value amounted to 5.54%. In the case of `O=C(Nc1ccc(F)cc1)c1ccc2[nH]c(=O)c(=O)[nH]c2c1` it was 9.25%.

`COc1cccc2c1OCC(CN1CCN(Cc3ccccc3)C(CCO)C1)=C2` (centres unmarked): the “hERG current change (%, negative = inhibition) at 10uM” value was -47.6%.

Regarding `COc1cc(/C=N/Nc2nc(Nc3ccc(C)cc3)nc(-n3nc(C)cc3C)n2)cc(OC)c1OC`, the “hERG current change (%, negative = inhibition) at 10uM” value turned out to be 1.26%. Turning to `Fc1ccc(-c2nc3n(n2)Cc2ccccc2-3)cc1`, the “hERG current change (%, negative = inhibition) at 10uM” value stood at 0.598%. Under `CCc1nc(N2CCCCC2)c2oc3ccccc3c2n1.Cl` stands 6.57%; under `O=C1c2ccccc2S(=O)(=O)c2cc(N3CCC(C(=O)N4CCCCC4)CC3)ccc21`, -3.7%; under `COC(=O)Nc1nc2ccc(-c3n[nH]c(=O)c4ccccc34)cc2[nH]1`, 11.4%. Under `CCN(CC(=O)Nc1ccc(NC(C)=O)cc1)CC(=O)Nc1cc(C)on1` stands -3.38%; under `COC(=O)c1ccc(NC(=O)CN(c2ccc(OC)cc2)S(C)(=O)=O)cc1`, -3.66%; under `O=C(Nc1ccncc1Cl)c1ccncc1`, 8.56%.

Turning to `Cc1ccc(NC(=O)N2CCc3ccccc3C2)cc1C`, the “hERG current change (%, negative = inhibition) at 10uM” value is 15.2%. In the case of `CC(=O)C1=C(C)NC(SCC(=O)c2ccc(Cl)cc2Cl)=C(C#N)C1c1ccco1` (centres unmarked) it was 1.79%. In the case of `CN1CCN(CCC(=O)N/N=C/C=C2\N(C)c3ccccc3C2(C)C)CC1` it was 6.4%; in that of `CCOC(=O)c1[nH]c2cc3c(cc2c1NC(=O)CN1CCCC1)OCO3`, -10.5%; in that of `CN(C(=S)Nc1cccnc1)c1ccc(O)cc1`, 17.1%. In the case of `COC(=O)CC1COc2ccccc2N1C(=O)c1ccc(OC)cc1` (centres unmarked) it was -11.6%; in that of `ClC(=C\c1ccccc1)/C=N/N1CCN(c2ccccn2)CC1`, -8.89%. For `CC(CC(=O)Nc1ccccc1)NCCCN1CCCC1=O.O=C(O)C(=O)O` (centres unmarked), the “hERG current change (%, negative = inhibition) at 10uM” value came to 19.4%. Under `CCN1CCN(Cc2c(O)ccc3c(=O)c(-c4ccccc4OC)coc23)CC1` stands -4.86%; under `O=C(C1CC(=O)N(C2CCCC2)C1)N1CCN(c2ccccc2F)CC1` (centres unmarked), -2.24%. In the case of `CC(C)COC(=O)C1C(=O)CC(C)(O)C(C(=O)OCC(C)C)C1c1cccnc1` (centres unmarked) it was -23.9%; in that of `Cc1cc(C)nc(NC(=O)Cc2ccc(Br)cc2)n1`, 18.9%; in that of `COc1ccc(/C=N/NC(=O)CSCC(=O)Nc2ccccc2)cc1OC`, 3.9%.

With `COC(=O)c1cccc(N(C(=O)c2ccco2)C(C(=O)NC2CCCC2)c2ccc(N3CCOCC3)cc2)c1` (centres unmarked), the “hERG current change (%, negative = inhibition) at 10uM” value was 2.19%. In the case of `COc1ccccc1CNC(=O)[C@@H]1CCCN1S(=O)(=O)c1ccc(Cl)cc1` it was -11.9%; in that of `CC(NC(=O)Cc1cccs1)c1ccccc1` (centres unmarked), 24.5%; in that of `CC(=O)c1c(C)[nH]c(C(=O)OCC(=O)N2CCN(S(=O)(=O)c3ccc(C)cc3C)CC2)c1C`, -15.9%. In the case of `C=CCNC(=O)c1ccccc1NS(=O)(=O)c1ccc(SC)cc1` it was -6.5%; in that of `COc1ccc(CC(=O)N2CCN(c3cccc(C)c3C)CC2)cc1`, -13.2%; in that of `CCOc1ccc(Nc2ncnc3c2nnn3Cc2ccccc2)cc1`, 3.35%. Under `O=C(NCc1cccc(Cl)c1)c1ccc2c(c1)OCCO2` stands 7.21%. In the case of `CCOC(=O)c1c(C)[nH]c(C(=O)CSc2nc3ccccc3o2)c1C`, the “hERG current change (%, negative = inhibition) at 10uM” value is -1.09%. Under `CCOC(=O)CCCn1c(C)nc(=O)c(-c2ccccc2)c1C` stands 3.92%; under `O=[N+]([O-])c1cc(-c2csc(NCCc3nc4cc(Cl)c(N5CCCCC5)cc4n3CCCO)n2)ccc1Cl`, 9.64%.
